These are yes or no findings as the source states them, for the method shown. For part of these data: In cells and extracts the contact can be indirect. Some entries that bind do so weakly or less than the wild type. Tags and fused reporters may be left off the sequences shown.
Columns and labels:
[1] = target: T1, ACA8 N-terminus (first 116 amino acids, 1M-I116) in the activation domain vector pGADT7 (Arabidopsis thaliana) (UniProt Q9LF79); assay: two-hybrid; yeast PJ69-4A; ACA8 N-terminus in the AD vector pGADT7, CIPKs in the BD vector pGBT9.BS; serial dilutions spotted on SD-W-L-H with 2.5 mM 3AT, 30 °C, 3-5 d
T1 sequence: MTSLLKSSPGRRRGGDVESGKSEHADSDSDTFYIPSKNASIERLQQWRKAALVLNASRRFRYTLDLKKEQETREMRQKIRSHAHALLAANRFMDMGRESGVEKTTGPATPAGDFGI

The chains behind the UniProt entries cited, without tags or fusion partners.
UniProt O81445: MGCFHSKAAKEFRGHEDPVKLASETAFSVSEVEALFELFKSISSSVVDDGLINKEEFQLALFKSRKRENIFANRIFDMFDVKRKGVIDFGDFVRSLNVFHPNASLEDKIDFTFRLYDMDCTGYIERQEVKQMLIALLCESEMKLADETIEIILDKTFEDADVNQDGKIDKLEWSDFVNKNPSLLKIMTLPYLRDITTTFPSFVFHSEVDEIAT

[2] = target: T2, ACA8 full-length protein fused to the C-terminal part of YFP (ACA8::YC) (Arabidopsis thaliana) (UniProt Q9LF79); assay: split reporter; BiFC of ACA8::YC with YN::CIPK9 in N. benthamiana leaf cells that also co-express the cytoplasmic mutant CBL1G2A::OFP and NUP::YC3.6
T2 sequence: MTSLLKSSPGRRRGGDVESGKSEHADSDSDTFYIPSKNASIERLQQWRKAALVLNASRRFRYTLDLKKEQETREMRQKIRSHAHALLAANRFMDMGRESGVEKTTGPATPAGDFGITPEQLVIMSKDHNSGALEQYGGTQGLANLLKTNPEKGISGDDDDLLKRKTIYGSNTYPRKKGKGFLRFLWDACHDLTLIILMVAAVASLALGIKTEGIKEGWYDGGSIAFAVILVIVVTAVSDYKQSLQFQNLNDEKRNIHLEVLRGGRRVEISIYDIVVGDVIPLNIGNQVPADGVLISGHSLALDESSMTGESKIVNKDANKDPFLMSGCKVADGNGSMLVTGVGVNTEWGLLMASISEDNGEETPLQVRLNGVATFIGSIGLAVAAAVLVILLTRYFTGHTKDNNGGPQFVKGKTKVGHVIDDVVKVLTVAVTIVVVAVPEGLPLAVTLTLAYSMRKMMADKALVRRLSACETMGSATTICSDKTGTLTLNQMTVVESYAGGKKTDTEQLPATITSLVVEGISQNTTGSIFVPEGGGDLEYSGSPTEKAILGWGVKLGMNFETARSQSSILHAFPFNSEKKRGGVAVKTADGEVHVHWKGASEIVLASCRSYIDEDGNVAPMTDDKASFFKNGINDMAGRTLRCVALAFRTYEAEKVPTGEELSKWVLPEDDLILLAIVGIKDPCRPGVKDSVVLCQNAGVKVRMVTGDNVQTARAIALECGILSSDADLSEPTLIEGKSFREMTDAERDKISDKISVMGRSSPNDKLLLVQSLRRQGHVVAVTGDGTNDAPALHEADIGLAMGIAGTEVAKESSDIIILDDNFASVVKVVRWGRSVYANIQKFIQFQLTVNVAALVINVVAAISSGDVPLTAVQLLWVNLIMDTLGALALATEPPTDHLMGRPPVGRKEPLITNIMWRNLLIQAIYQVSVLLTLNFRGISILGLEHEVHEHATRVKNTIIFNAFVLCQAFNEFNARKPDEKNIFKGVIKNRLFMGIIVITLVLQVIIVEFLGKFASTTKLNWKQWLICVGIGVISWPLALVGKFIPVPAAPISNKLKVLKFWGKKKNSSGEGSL

[3] = target: CBL1 fused to the C-terminal part of YFP (CBL1::YC) (Arabidopsis thaliana) (UniProt O81445); assay: split reporter; BiFC of YN::CIPK fusions with ACA8::YC or CBL1::YC in transiently transformed N. benthamiana leaves; confocal microscopy, 4 d after infiltration
[4] = target: T2, ACA8 full-length protein fused to the C-terminal part of YFP (ACA8::YC) (Arabidopsis thaliana); assay: as above

Binder | binding [1] | binding [2] | binding [3] | binding [4]
CIPK9 in the BD vector pGBT9.BS (enzyme, UniProt Q9MAM1 1-447) MSGSRRKATPASRTRVGNYEMGRTLGEGSFAKVKYAKNTVTGDQAAIKILDREKVFRHKMVEQLKREISTMKLIKHPNVVEIIEVMASKTKIYIVLELVNGGELFDKIAQQGRLKEDEARRYFQQLINAVDYCHSRGVYHRDLKPENLILDANGVLKVSDFGLSAFSRQVREDGLLHTACGTPNYVAPEVLSDKGYDGAAADVWSCGVILFVLMAGYLPFDEPNLMTLYKRICKAEFSCPPWFSQGAKRVIKRILEPNPITRISIAELLEDEWFKKGYKPPSFDQDDEDITIDDVDAAFSNSKECLVTEKKEKPVSMNAFELISSSSEFSLENLFEKQAQLVKKETRFTSQRSASEIMSKMEETAKPLGFNVRKDNYKIKMKGDKSGRKGQLSVATEVFEVAPSLHVVELRKTGGDTLEFHKFYKNFSSGLKDVVWNTDAAAEEQKQ | binds | – | – | –
CIPK9 fused to the N-terminal part of YFP (YN::CIPK9) (enzyme, UniProt Q9MAM1 1-447) MSGSRRKATPASRTRVGNYEMGRTLGEGSFAKVKYAKNTVTGDQAAIKILDREKVFRHKMVEQLKREISTMKLIKHPNVVEIIEVMASKTKIYIVLELVNGGELFDKIAQQGRLKEDEARRYFQQLINAVDYCHSRGVYHRDLKPENLILDANGVLKVSDFGLSAFSRQVREDGLLHTACGTPNYVAPEVLSDKGYDGAAADVWSCGVILFVLMAGYLPFDEPNLMTLYKRICKAEFSCPPWFSQGAKRVIKRILEPNPITRISIAELLEDEWFKKGYKPPSFDQDDEDITIDDVDAAFSNSKECLVTEKKEKPVSMNAFELISSSSEFSLENLFEKQAQLVKKETRFTSQRSASEIMSKMEETAKPLGFNVRKDNYKIKMKGDKSGRKGQLSVATEVFEVAPSLHVVELRKTGGDTLEFHKFYKNFSSGLKDVVWNTDAAAEEQKQ | – | binds weakly | binds | binds
CIPK14 in the BD vector pGBT9.BS (enzyme, UniProt Q9LZW4 1-442) MVDSDPVEFPPENRRGQLFGKYEVGKLVGCGAFAKVYHGRSTATGQSVAIKVVSKQRLQKGGLNGNIQREIAIMHRLRHPSIVRLFEVLATKSKIFFVMEFAKGGELFAKVSKGRFCEDLSRRYFQQLISAVGYCHSRGIFHRDLKPENLLLDEKLDLKISDFGLSALTDQIRPDGLLHTLCGTPAYVAPEVLAKKGYDGAKIDIWSCGIILFVLNAGYLPFNDHNLMVMYRKIYKGEFRIPKWTSPDLRRLLTRLLDTNPQTRITIEEIIHDPWFKQGYDDRMSKFHLEDSDMKLPADETDSEMGARRMNAFDIISGSPGFNLSGLFGDARKYDRVERFVSAWTAERVVERLEEIVSAENLTVAKKETWGMKIEGQKGNFAMVVEINQLTDELVMIEVRKRQRAAASGRDLWTDTLRPFFVELVHESDQTDPEPTQVHTTS | binds | – | – | –
CIPK14 fused to the N-terminal part of YFP (YN::CIPK14) (enzyme, UniProt Q9LZW4 1-442) MVDSDPVEFPPENRRGQLFGKYEVGKLVGCGAFAKVYHGRSTATGQSVAIKVVSKQRLQKGGLNGNIQREIAIMHRLRHPSIVRLFEVLATKSKIFFVMEFAKGGELFAKVSKGRFCEDLSRRYFQQLISAVGYCHSRGIFHRDLKPENLLLDEKLDLKISDFGLSALTDQIRPDGLLHTLCGTPAYVAPEVLAKKGYDGAKIDIWSCGIILFVLNAGYLPFNDHNLMVMYRKIYKGEFRIPKWTSPDLRRLLTRLLDTNPQTRITIEEIIHDPWFKQGYDDRMSKFHLEDSDMKLPADETDSEMGARRMNAFDIISGSPGFNLSGLFGDARKYDRVERFVSAWTAERVVERLEEIVSAENLTVAKKETWGMKIEGQKGNFAMVVEINQLTDELVMIEVRKRQRAAASGRDLWTDTLRPFFVELVHESDQTDPEPTQVHTTS | – | – | binds | binds
CIPK7 fused to the N-terminal part of YFP (YN::CIPK7) (enzyme, UniProt Q9XIW0 1-429) MESLPQPQNQSSPATTPAKILLGKYELGRRLGSGSFAKVHLARSIESDELVAVKIIEKKKTIESGMEPRIIREIDAMRRLRHHPNILKIHEVMATKSKIYLVMELASGGELFSKVLRRGRLPESTARRYFQQLASALRFSHQDGVAHRDVKPQNLLLDEQGNLKVSDFGLSALPEHLQNGLLHTACGTPAYTAPEVISRRGYDGAKADAWSCGVILFVLLVGDVPFDDSNIAAMYRKIHRRDYRFPSWISKQAKSIIYQMLDPNPVTRMSIETVMKTNWFKKSLETSEFHRNVFDSEVEMKSSVNSITAFDLISLSSGLDLSGLFEAKKKKERRFTAKVSGVEVEEKAKMIGEKLGYVVKKKMMKKEGEVKVVGLGRGRTVIVVEAVELTVDVVVVEVKVVEGEEDDSRWSDLITELEDIVLSWHNDIM | – | – | binds | –
CIPK7 in the BD vector pGBT9.BS (enzyme, UniProt Q9XIW0 1-429) MESLPQPQNQSSPATTPAKILLGKYELGRRLGSGSFAKVHLARSIESDELVAVKIIEKKKTIESGMEPRIIREIDAMRRLRHHPNILKIHEVMATKSKIYLVMELASGGELFSKVLRRGRLPESTARRYFQQLASALRFSHQDGVAHRDVKPQNLLLDEQGNLKVSDFGLSALPEHLQNGLLHTACGTPAYTAPEVISRRGYDGAKADAWSCGVILFVLLVGDVPFDDSNIAAMYRKIHRRDYRFPSWISKQAKSIIYQMLDPNPVTRMSIETVMKTNWFKKSLETSEFHRNVFDSEVEMKSSVNSITAFDLISLSSGLDLSGLFEAKKKKERRFTAKVSGVEVEEKAKMIGEKLGYVVKKKMMKKEGEVKVVGLGRGRTVIVVEAVELTVDVVVVEVKVVEGEEDDSRWSDLITELEDIVLSWHNDIM | no binding | – | – | –

From article PMC5853299
